Experimental data: PubChem BioAssay AID588453 (National Center for Advancing Translational Sciences (NCATS), 2011)
Hit rate of the full screen: of about 390,000 compounds, about 4,000 (1%) were called active. This list was built around the results that the source calls inconclusive (neither active nor inactive); the mix of calls is not that of the screen. Calls follow the shape of the dose curve; as a rule, active = well fitted inhibition curve with a large enough effect; inconclusive = small, poorly fitted or top-dose-only effect; inactive = no such curve, though single readings can be large or run the other way. Potencies of inconclusive entries are doubtful fits and often do not repeat.

target: Thioredoxin reductase 1, cytoplasmic (Rattus norvegicus) (UniProt O89049); assay: qHTS Assay for Inhibitors of Mammalian Selenoprotein Thioredoxin Reductase 1 (TrxR1): qHTS; conditions: recombinant rTrxR1, NADPH fluorescence consumption, selenite substrate; series mostly up to 114 µM; activity change, negative = inhibition: at the top concentration; also: nearly all actives have a fitted effect of over 65% in size
Method in brief: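 Rat TrxR1 (90 nM in the dispensed reagent) was pre-reduced with 400 uM NADPH for 5 min at room temperature, then incubated with compound for 15 min. After 400 uM selenite was added, NADPH fluorescence (Ex 340/Em 450 nm) was followed for 8 min.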
% is scaled to controls: 0 for no effect and ±100 for the full control effect; potency is read from the fitted curve at half-maximal effect; tags tell the direction and shape of the fitted curve.

Sequence of UniProt O89049 (O89049 whole entry, looked up): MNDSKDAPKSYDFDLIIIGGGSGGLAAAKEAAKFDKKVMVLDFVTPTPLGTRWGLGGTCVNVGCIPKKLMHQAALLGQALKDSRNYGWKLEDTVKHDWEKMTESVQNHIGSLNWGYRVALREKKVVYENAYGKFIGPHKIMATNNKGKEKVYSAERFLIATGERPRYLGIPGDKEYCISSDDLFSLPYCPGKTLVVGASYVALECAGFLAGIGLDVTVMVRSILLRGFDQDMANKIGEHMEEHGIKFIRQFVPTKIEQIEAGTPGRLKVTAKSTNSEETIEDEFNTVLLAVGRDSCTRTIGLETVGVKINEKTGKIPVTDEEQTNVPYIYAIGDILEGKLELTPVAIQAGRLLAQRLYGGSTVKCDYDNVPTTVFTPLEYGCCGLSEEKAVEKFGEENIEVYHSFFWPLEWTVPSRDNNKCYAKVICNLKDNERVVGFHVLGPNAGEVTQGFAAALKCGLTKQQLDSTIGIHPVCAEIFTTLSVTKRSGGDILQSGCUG

Row | SMILES | activity change, negative = inhibition | Potency
1 | COc1ccc(-c2nnc(SCC(=O)Nc3cccc(C(F)(F)F)c3)nc2-c2ccc(OC)cc2)cc1 | inactive: 0.276% [at 57.1 µM] | 
2 | COC(=O)c1c(NC(=O)c2cc3ccccc3c(=O)o2)sc2c1CCCC2 | inactive: 26.1% | 
3 | Cc1ccc2c(c1)C(=C(C#N)C#N)C(=O)N2CCN1CCCCC1 | inactive: 45.8% [at 11.4 µM] | 
4 | COc1ccc(OC)c(CNS(=O)(=O)c2ccc3c(c2)CCCN3C(C)=O)c1 | inactive: 20.3% [at 57.1 µM] | 
5 | CCOC(=O)c1c(C)nc2sc3c(=O)n(-c4ccc(C(C)=O)cc4)nnc3c2c1-c1ccc(Cl)cc1 | inactive: -9.77% | 
6 | Cc1nn2c(=S)[nH]nc2[nH]c1=O |  | inconclusive: 20 µM [inhibitor, partial curve]
7 | COc1ccc(CCNCc2ccccc2N2CCCC2)cc1 |  | inconclusive: 89.1 µM [inhibitor, single point]
8 | COc1cc(/C=C2/NC(=O)N(Cc3ccccc3F)C2=O)cc(OC)c1O |  | inconclusive: 25.1 µM [inhibitor, partial curve, poor fit]
9 | COc1cc2nc(C3CCC3)n(N)c(=O)c2cc1OC |  | inconclusive: 8.91 µM [inhibitor, single point]
10 | C/C=C(/C)C(=O)OC1c2c(ccc3ccc(=O)oc23)OC(C)(C)C1OC(=O)/C(C)=C\C (stereo not drawn) |  | inconclusive: 50.1 µM [inhibitor, partial curve]
11 | Cc1cccc(NC(=S)NC(=O)c2ccc(Br)o2)c1 |  | inconclusive: 22.4 µM [inhibitor, partial curve, poor fit]
12 | CC1=C(C/C=C(\C)CCCC(C)CCCC(C)CCCC(C)C)C(=O)c2ccccc2C1=O (stereo not drawn) |  | inconclusive: 35.5 µM [inhibitor, partial curve]
13 | Cc1ccc2onc(CC(=O)N3CCN(c4ccc(F)cc4)CC3)c2c1 |  | inconclusive: 63.1 µM [inhibitor, single point]
14 | CCN1/C(=C/C=C/C=C/c2sc3ccccc3[n+]2CC)Sc2ccccc21 |  | inconclusive: 63.1 µM [inhibitor, partial curve, poor fit]
15 | O=C1C(=O)N2C(=C1C(=O)N1CCCCCC1)c1ccccc1CC21CCCC1 | inactive: -5.28% [at 57.1 µM] | 
16 | NC(=O)c1c(NC(=S)Nc2ccccc2)sc2c1CCCC2 |  | inconclusive: 3.98 µM [inhibitor, partial curve]
17 | CC1CCCN(S(=O)(=O)c2ccc(NC(=O)c3cccc(-n4cnnn4)c3)cc2)C1 (stereo not drawn) | inactive: 27.3% | 
18 | COc1ccccc1NS(=O)(=O)c1cc(NC(=O)c2ccc(Cl)nc2)ccc1N1CCCC1 | inactive: -15.7% | 
19 | Cc1ccc(NC(=O)CS(=O)Cc2nc(-c3ccc(C)cc3)oc2C)cc1 (stereo not drawn) | inactive: 0.765% [at 57.1 µM] | 
20 | FC(F)(F)c1cccc(-c2nc3nc(Cl)c(Cl)nc3[nH]2)c1 |  | inactive
21 | COC(=O)c1ccc(C(c2c(N)n(Cc3ccccc3)c(=O)n(C)c2=O)N2CCOCC2)cc1 (stereo not drawn) |  | inconclusive: 8.91 µM [inhibitor, partial curve, poor fit]
22 | CCOc1ccc(C(=O)NCc2nc3cccnc3n2Cc2ccc(F)cc2)cc1OCC | inactive: 14.2% [at 57.1 µM] | 
23 | CCCCn1c(SCC(=O)Nc2sc3c(c2C(N)=O)CCC3)nnc1-c1ccccc1 |  | active: 35.5 µM

Row | SMILES | activity change, negative = inhibition | Potency
24 | Cc1ccccc1CSCCNC(=O)c1ccccc1 | inactive: -10.7% | 
25 | O=C(NCc1ccco1)c1ccc(Cn2c(SCc3ccc(F)cc3)nc3cccnc32)cc1 |  | inconclusive: 20 µM [inhibitor, full curve, poor fit]
26 | CCCC1(C)C(C#N)(C#N)C1(C#N)C#N |  | inconclusive: 10.6 µM [inhibitor, partial curve]
27 | Cn1c(=S)[nH]c2[nH]c(=O)cnc2c1=O |  | inconclusive: 22.4 µM [inhibitor, partial curve, poor fit]
28 | Cc1cc2n(n1)SC(Nc1ccc(F)cc1)N2 (stereo not drawn) |  | inconclusive: 2.51 µM [inhibitor, full curve, poor fit]
29 | CCc1ccc(-c2nn(Cc3ccccc3)cc2/C=C/C(=O)O)cc1 |  | inconclusive: 3.16 µM [inhibitor, single point]
30 | COC(CN(C)C(=O)c1cn(C)c2ccc(S(=O)(=O)N(C)C3CCCCC3)cc2c1=O)OC |  | inconclusive: 25.1 µM [inhibitor, full curve]
31 | O=C(Nc1nnc(-c2ccco2)o1)c1cccc2ccccc12 | inactive: 8.58% [at 57.1 µM] | 
32 | COc1cc(CN2CCNC(=O)C2CC(=O)NC2CCCCC2)cc(OC)c1 (stereo not drawn) |  | inconclusive: 50.1 µM [inhibitor, partial curve]
33 | COc1ccc(C(=O)NC(=S)Nc2cccc3ncccc23)cc1[N+](=O)[O-] |  | inconclusive: 25.1 µM [inhibitor, full curve]
34 | Cn1c2c(c(=O)n(C)c1=O)C(c1ccc(Cl)cc1)C(C#N)=C(N)O2 (stereo not drawn) |  | inconclusive: 44.7 µM [inhibitor, partial curve, poor fit]
35 | COc1ccccc1C(=O)Nc1ccccc1SC(=O)c1ccccc1OC | inactive: -6.74% | 
36 | CC(=O)c1cccc(NC(=O)CN2C(=O)COc3ccc(S(=O)(=O)N4CCOCC4)cc32)c1 |  | inconclusive: 56.2 µM [inhibitor, partial curve]
37 | O=C(N/N=C\c1ccc(Br)o1)C1COc2ccccc2O1 (stereo not drawn) |  | inconclusive: 50.1 µM [inhibitor, partial curve]
38 | COc1ccccc1N1CCN(CC(=O)c2c(C)n(C)c3ccccc23)CC1 |  | inconclusive: 89.1 µM [inhibitor, single point]
39 | Cc1c(C(=O)NCc2ccco2)oc2ccc(Br)cc12 |  | inconclusive: 56.2 µM [inhibitor, partial curve, poor fit]
40 | O=C1NC(=S)SC1=C1CCCCCC1 |  | inconclusive: 35.5 µM [inhibitor, single point]
41 | C[N+]1(CC(=O)c2ccc(F)cc2)CCc2ccccc2C1 (stereo not drawn) |  | inconclusive: 70.8 µM [inhibitor, partial curve]
42 | CCSC1=C(C#N)C2(CCCC2)C(C#N)=C(N)N1 |  | inconclusive: 22.4 µM [inhibitor, single point]
43 | N#C/C(=C\c1cccc(O)c1)C(=O)N1CCCCC1 |  | inconclusive: 11.2 µM [inhibitor, full curve]
44 | NC(=NCCc1ccccc1)NS(=O)(=O)c1ccc(F)cc1 | inactive: 15.1% | 
45 | CCN(CC)S(=O)(=O)c1ccc(Cl)c(NC(=O)COC(=O)c2ccc([N+](=O)[O-])o2)c1 |  | inconclusive: 35.5 µM [inhibitor, partial curve]
46 | CN(C)Cc1cc(O)c(CN(C)C)cc1O |  | active: 14.1 µM

Row | SMILES | activity change, negative = inhibition | Potency
47 | COc1cccc(CN(C)Cc2c(O)ccc3ccccc23)c1 |  | inconclusive: 17.8 µM [inhibitor, full curve, poor fit]
48 | Cc1cc(C(=O)CSc2nnc(-c3ccncc3)n2-c2ccccc2)c(C)n1C |  | inconclusive: 89.1 µM [inhibitor, single point]
49 | O=C1C(=Cc2ccco2)C(=O)c2ccccc21 |  | inconclusive: 79.4 µM [inhibitor, partial curve]
50 | CCCOc1ccc(C2C(C(=O)c3cc4ccccc4o3)=C(O)C(=O)N2c2cc(C)on2)cc1 (stereo not drawn) | inactive: -12.9% | 
51 | CNCC(O)Cn1c(C(F)(F)F)nc2ccccc21 (stereo not drawn) |  | inconclusive: 31.6 µM [inhibitor, partial curve, poor fit]
52 | C=CCn1c(N)c(C(=O)NCCC2=CCCCC2)sc1=S |  | inconclusive: 28.2 µM [inhibitor, partial curve, poor fit]
53 | N/C(=N\OC(=O)c1ccccc1Cl)c1cccc([N+](=O)[O-])c1 |  | inconclusive: 89.1 µM [inhibitor, single point]
54 | CC(=O)c1ccc2c(c1)C1C=CCC1C(C(=O)O)N2 (stereo not drawn) |  | inconclusive: 17.8 µM [inhibitor, partial curve]
55 | OCC(O)CSc1nc(-c2ccccc2)nc2c1CCC2 (stereo not drawn) |  | inconclusive: 89.1 µM [inhibitor, single point]
56 | O=C(COC(=O)c1ccccc1C(=O)c1ccc(Cl)c([N+](=O)[O-])c1)NC1CC1 |  | inconclusive: 44.7 µM [inhibitor, partial curve, poor fit]
57 | OC(CBr)C[n+]1cccc2cc(Br)ccc21 (stereo not drawn) |  | inconclusive: 70.8 µM [inhibitor, partial curve]
58 | COC(=O)CCC/C=C1/SCC(NC(=O)c2ccccc2)C1O (stereo not drawn) |  | active: 50.1 µM
59 | CCOC(=O)NN1C(=O)c2ccccc2NC1c1ccccc1O (stereo not drawn) |  | inconclusive: 35.5 µM [inhibitor, single point]
60 | CN1CCc2c(sc3c2c(=O)n(-c2ccc(Cl)cc2)c2nncn32)C1 |  | inconclusive: 56.2 µM [inhibitor, partial curve, poor fit]
61 | CC(=O)Nc1ccc(S(=O)(=O)NC2(C(F)(F)F)C(=O)NC(C)=C2C#N)cc1 (stereo not drawn) |  | inconclusive: 56.2 µM [inhibitor, partial curve, poor fit]
62 | O=C1C=CC(=O)N1c1ccc(O)cc1 |  | active: 1.26 µM
63 | CCc1nc2sc3ccccc3c(=O)c2c(=O)n1Cc1ccco1 |  | active: 14.1 µM
64 | CCOc1cc(-c2nc3ccccn3c2NCC2CCCO2)ccc1O (stereo not drawn) |  | inconclusive: 79.4 µM [inhibitor, single point]
65 | CC(=O)N1c2ccc(S(=O)(=O)NCC3CCC(C(=O)NCCC(C)C)CC3)cc2CC1C (stereo not drawn) | inactive: 0.957% | 
66 | Cc1ccc(S(=O)(=O)N2[C@@H](c3ccc(C(C)(C)C)cc3)C(C(=O)O)=CC[C@H]2c2ccc(C(C)C)cc2)cc1 |  | inconclusive: 39.8 µM [inhibitor, single point]
67 | COc1ccc(C(=O)CCC(=O)NC2=NCCS2)cc1 |  | inconclusive: 89.1 µM [inhibitor, single point]
68 | CCN(CC)S(=O)(=O)c1ccc(Cl)c(C(=O)Oc2cccnc2)c1 |  | inconclusive: 79.4 µM [inhibitor, partial curve, poor fit]
